# Where “and” joins values, the source holds several entries; their conditions need not be identical. Identical values can stand only once. The source gives many values for each of these; only a part stands here.
# What was measured:
# Assay in all cases: Inside-out patch-clamp inhibition of CFTR current by Inh-172
# Type in all cases: cell-based
# [1] = target: T1, M348K-CFTR (Homo sapiens, UniProt P13569, M348K); settings: 5000 nM Inh-172
# T1 construct: expressed in transfected cells; host or cells: CHO cells, pcDNA plasmid
# Description: (§1) CHO cells were grown at 37 °C in Dulbecco’s modified Eagle’s medium supplemented with 10% (vol/vol) fetal bovine serum (Sigma-Aldrich, St. Louis, MO). pcDNA plasmids carrying the desired CFTR construct were transfected to CHO cells using PolyFect transfection reagent (Qiagen, Hilden, Germany) together with green fluorescence protein (GFP) cDNA (pEGFP-C3, Takara Bio, Shiga, Japan) that helps identify expression of CFTR. Cells were first incubated with the transfection reagents at 37 °C for 6-12 hours on sterile glass chips in 35-mm tissue culture dishes before transferred to 27 °C for incubation for 2–7 days. Primers for mutations were ordered from Integrated DNA Technologies (Coralville, IA) and were summarized in Supplementary Data. All CFTR mutants were prepared with QuikChange XL kit (Agilent, Santa Clara, CA) and sequenced at the DNA Core facility at University of Missouri-Columbia.
# (§2) Patch-clamp pipettes were made from borosilicate capillary glass using a two-stage vertical puller (PP-81; Narishige, Amityville, NY). The pipette tips were fire polished with a homemade microforge to yield a pipette resistance of 2–5 MΩ when filled with a pipette solution containing (in mM): 140 NMDG-Cl (N-methyl-D-glucamine-chloride), 5 CaCl2, 2 MgCl2, and 10 HEPES, pH 7.4. For recordings, transfected cells on glass chips were transferred into a continuously perfused chamber on the stage of an inverted microscope (IX51; Olympus, Tokyo, Japan) with the perfusing solution containing (in mM): 150 NMDG-Cl, 2 MgCl2, 10 EGTA, 8 Tris, and 10 HEPES, pH 7.4. The membrane patch was excised to an inside-out configuration with a seal resistance >40 GΩ. CFTR currents were recorded with an amplifier (EPC9; HEKA, Holliston, MA), filtered through an eight-pole Bessel filter (LPF-8; Warner Instruments, Hamden, CT) at 100 Hz and digitized to a computer at a sampling rate of 500 Hz with Pulse software (version 8.53; HEKA). The membrane potential was held at −30 mV. Solution exchange was achieved by a fast solution change system (SF-77B; Warner Instruments). Inh-172 was obtained from the CFTR Chemical Compound Program supported by the Cystic Fibrosis Foundation. All experiments were performed at room temperature.
# (§3) The steady state mean currents were measured in the Igor Pro software (version 8.0; WaveMetrics). The mean baseline currents were subtracted from the steady state mean currents before the data were used to determine the degrees of inhibition. The degrees of inhibition by CFTR inhibitor 172 were calculated based on the equation:1 %inhibition=1−IInh−172/I0X100% where I0 and Iinh−172 represent uninhibited and inhibited currents, respectively. The IC50 and Hill coefficients were obtained by fitting percent inhibition as a function of [Inh-172] with the Hill equation:2 %inhibition=base+(max−base)/1+xhalf/x^rate where max and base represent the […] percent inhibition by Inh-172, x represents the concentration of Inh-172, and the rate is the Hill coefficient. The estimated IC50 (xhalf) and Hill coefficients are listed in Table 1 as mean ± standard deviation. Each patch-clamp recording was made from a separate cell.
# [2] = target: T2, h-pTMD2-h-CFTR (human CFTR with pig CFTR's TMD2) (Homo sapiens, UniProt P13569, A1009S/A789T/A797V/A842T/E1221D/E815D/F931L/G885K/H897K/H950R/I1005V/I1226V/I853V/I869V/I982V/INS1173D/K1174Q/K1177R/K830R/L805I/L889P/M1028L/M837V/M929L/N1184D/N782S/N886K/P888S/Q1012K/Q1035H/R1128T/R899A/S1196Q/S877C/S898G/S912A/T1171A/T1176N/T1179F/T1220V/T788A/T925G/V1017L/V1056I/V794M/W882C/Y1182S)
# T2 construct: expressed in transfected cells; host or cells: CHO cells, pcDNA plasmid
# Description: as §1, §2, §3
# [3] = target: T3, human WT-CFTR (Homo sapiens, UniProt P13569)
# T3 construct: the native wild-type CFTR construct without any deletion or mutation; expressed in transfected cells; host or cells: CHO cells, pcDNA plasmid
# Description: as §1, §2, §3
# [4] = target: T4, h-pTM8-h-CFTR (human CFTR, three TM8 amino acids replaced with pig's) (Homo sapiens, UniProt P13569, F931L/M929L/T925G)
# T4 construct: expressed in transfected cells; host or cells: CHO cells, pcDNA plasmid
# Description: as §1, §2, §3
# [5] = target: T5, W1145Y-CFTR (Homo sapiens, UniProt P13569, W1145Y)
# T5 construct: expressed in transfected cells; host or cells: CHO cells, pcDNA plasmid
# Description: as §1, §2, §3
# [6] = target: T6, T1142I-CFTR (Homo sapiens, UniProt P13569, T1142I)
# T6 construct: expressed in transfected cells; host or cells: CHO cells, pcDNA plasmid
# Description: as §1, §2, §3
# T4 sequence (P13569 whole entry T925G/M929L/F931L): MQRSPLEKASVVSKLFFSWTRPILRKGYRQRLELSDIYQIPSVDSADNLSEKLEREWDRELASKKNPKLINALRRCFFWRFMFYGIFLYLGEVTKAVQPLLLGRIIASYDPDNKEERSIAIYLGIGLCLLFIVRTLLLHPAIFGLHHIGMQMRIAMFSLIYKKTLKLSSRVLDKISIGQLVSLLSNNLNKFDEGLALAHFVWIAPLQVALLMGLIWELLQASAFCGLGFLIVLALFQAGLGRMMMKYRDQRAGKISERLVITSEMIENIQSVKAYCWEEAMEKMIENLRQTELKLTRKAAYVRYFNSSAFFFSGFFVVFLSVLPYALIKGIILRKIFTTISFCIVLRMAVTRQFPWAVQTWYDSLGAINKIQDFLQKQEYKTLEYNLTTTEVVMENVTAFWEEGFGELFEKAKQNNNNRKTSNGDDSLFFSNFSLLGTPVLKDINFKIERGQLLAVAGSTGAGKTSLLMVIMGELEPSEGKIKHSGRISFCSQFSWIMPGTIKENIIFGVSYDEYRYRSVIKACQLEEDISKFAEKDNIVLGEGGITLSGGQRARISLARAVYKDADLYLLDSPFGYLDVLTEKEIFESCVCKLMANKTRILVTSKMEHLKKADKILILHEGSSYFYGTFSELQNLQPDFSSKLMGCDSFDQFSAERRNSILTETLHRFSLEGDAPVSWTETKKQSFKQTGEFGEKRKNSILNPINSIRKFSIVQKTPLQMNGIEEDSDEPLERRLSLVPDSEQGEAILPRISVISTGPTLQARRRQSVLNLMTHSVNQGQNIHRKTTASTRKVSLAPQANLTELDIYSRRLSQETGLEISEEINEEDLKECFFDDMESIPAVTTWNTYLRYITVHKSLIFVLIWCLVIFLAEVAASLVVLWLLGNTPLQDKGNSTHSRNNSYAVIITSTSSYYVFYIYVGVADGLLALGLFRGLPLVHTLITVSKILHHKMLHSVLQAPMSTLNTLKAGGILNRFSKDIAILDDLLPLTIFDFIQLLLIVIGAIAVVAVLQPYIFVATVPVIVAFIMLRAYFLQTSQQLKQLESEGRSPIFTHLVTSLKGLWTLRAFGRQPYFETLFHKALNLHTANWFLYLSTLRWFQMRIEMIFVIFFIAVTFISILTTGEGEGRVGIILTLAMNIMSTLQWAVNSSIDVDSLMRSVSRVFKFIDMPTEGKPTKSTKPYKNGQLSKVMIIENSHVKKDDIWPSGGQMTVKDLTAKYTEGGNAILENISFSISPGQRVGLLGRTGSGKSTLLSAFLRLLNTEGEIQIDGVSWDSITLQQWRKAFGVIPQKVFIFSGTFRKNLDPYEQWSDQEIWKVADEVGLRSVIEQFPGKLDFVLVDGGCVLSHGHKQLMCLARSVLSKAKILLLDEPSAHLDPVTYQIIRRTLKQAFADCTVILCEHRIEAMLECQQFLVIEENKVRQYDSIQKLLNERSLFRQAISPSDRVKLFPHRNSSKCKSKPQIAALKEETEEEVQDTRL
# T6 sequence (P13569 whole entry T1142I): as the sequence (P13569 whole entry T925G/M929L/F931L) above, with G925T, L929M, L931F, T1142I counted along it
# T3 sequence (P13569 whole entry): as the sequence (P13569 whole entry T925G/M929L/F931L) above, with G925T, L929M, L931F counted along it
# T2 sequence (P13569 with tags, fused parts or gaps with the stated changes): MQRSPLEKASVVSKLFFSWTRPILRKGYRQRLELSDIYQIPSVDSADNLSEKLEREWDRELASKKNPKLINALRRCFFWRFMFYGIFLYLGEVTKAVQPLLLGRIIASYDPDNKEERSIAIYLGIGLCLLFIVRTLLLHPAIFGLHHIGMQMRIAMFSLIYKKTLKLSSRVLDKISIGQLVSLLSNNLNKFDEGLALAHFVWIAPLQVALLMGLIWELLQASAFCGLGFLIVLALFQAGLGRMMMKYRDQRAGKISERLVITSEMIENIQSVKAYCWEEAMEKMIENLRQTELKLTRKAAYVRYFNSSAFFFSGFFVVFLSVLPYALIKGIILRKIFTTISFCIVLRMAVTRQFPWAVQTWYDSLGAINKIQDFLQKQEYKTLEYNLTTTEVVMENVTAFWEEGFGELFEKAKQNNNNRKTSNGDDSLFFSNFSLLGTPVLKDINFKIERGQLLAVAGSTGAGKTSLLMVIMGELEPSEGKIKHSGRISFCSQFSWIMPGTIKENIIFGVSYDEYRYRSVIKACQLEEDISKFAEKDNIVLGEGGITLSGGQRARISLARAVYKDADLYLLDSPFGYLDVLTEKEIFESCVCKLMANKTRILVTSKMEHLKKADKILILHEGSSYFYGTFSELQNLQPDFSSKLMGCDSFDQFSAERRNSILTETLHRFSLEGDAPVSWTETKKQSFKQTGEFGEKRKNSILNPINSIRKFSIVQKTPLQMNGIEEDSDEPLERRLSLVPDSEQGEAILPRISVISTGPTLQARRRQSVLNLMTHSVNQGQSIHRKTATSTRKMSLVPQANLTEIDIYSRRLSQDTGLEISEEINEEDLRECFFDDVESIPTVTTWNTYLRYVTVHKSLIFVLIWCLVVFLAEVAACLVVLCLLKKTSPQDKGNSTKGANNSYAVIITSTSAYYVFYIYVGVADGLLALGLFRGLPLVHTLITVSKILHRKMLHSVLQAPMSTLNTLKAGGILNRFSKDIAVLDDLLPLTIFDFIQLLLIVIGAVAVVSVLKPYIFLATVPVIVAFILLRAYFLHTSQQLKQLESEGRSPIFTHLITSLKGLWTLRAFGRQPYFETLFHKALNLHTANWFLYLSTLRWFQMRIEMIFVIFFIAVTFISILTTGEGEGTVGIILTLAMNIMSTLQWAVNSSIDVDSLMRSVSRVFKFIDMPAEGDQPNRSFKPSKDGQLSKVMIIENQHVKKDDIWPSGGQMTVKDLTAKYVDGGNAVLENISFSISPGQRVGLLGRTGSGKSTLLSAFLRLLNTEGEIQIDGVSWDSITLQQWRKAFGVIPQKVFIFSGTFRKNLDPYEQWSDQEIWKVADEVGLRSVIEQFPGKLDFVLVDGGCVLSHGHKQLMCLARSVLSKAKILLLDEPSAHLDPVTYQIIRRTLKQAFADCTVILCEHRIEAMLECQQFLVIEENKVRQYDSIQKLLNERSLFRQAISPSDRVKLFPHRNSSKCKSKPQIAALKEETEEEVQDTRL
# T5 sequence (P13569 whole entry W1145Y): as the sequence (P13569 whole entry T925G/M929L/F931L) above, with G925T, L929M, L931F, W1145Y counted along it
# T1 sequence (P13569 whole entry M348K): as the sequence (P13569 whole entry T925G/M929L/F931L) above, with M348K, G925T, L929M, L931F counted along it
structure (smiles),measurement,setting,value
"O=C(O)c1ccc(/C=C2\SC(=S)N(c3cccc(C(F)(F)F)c3)C2=O)cc1 [Inh-172, CFTRinh-172]","percent inhibition of current, individual cell",[1],87.0 and 82.0
same,"percent inhibition of current, individual cell",[2]; 100 nM Inh-172,12.0 and 9.0 and 6.0 and 0.0
same,"percent inhibition of current, individual cell",[2]; 500 nM Inh-172,25.0 and 14.0 and 21.0
same,"percent inhibition of current, individual cell",[2]; 1000 nM Inh-172,30.0 and 31.0
same,"percent inhibition of current, individual cell",[2]; 5000 nM Inh-172,43.0 and 55.0 and 67.0 and 61.0
same,"percent inhibition of current, individual cell",[2]; 10000 nM Inh-172,51.0 and 65.0 and 58.0 and 66.0
same,"percent inhibition of current, individual cell",[3]; 25 nM Inh-172,14 and 32 and 30 and 34 and 26
same,"percent inhibition of current, individual cell",[3]; 50 nM Inh-172,42 and 35
same,"percent inhibition of current, individual cell",[3]; 100 nM Inh-172,61 and 60 and 64
same,"percent inhibition of current, individual cell",[3]; 500 nM Inh-172,87
same,"percent inhibition of current, individual cell",[3]; 1000 nM Inh-172,91 and 86
same,"percent inhibition of current, individual cell",[4]; 100 nM Inh-172,25.0 and 10.0 and 13.0 and 18.0 and 26.0
same,"percent inhibition of current, individual cell",[4]; 500 nM Inh-172,50.0 and 57.0 and 37.0 and 33.0 and 42.0 and 59.0
same,"percent inhibition of current, individual cell",[4]; 1000 nM Inh-172,54.0 and 58.0
same,"percent inhibition of current, individual cell",[4]; 5000 nM Inh-172,79.0 and 80.0 and 85.0
same,"percent inhibition of current, individual cell",[5]; 100 nM Inh-172,5 and 17 and 10 and 11
same,"percent inhibition of current, individual cell",[5]; 500 nM Inh-172,46 and 30 and 42 and 43
same,"percent inhibition of current, individual cell",[5]; 1000 nM Inh-172,43 and 67 and 48 and 56
same,"percent inhibition of current, individual cell",[5]; 5000 nM Inh-172,84 and 85
same,"percent inhibition of current, individual cell",[5]; 10000 nM Inh-172,95 and 90 and 92
same,"percent inhibition of current, individual cell",[6]; 100 nM Inh-172,9.0 and 10.0 and 7.0
same,"percent inhibition of current, individual cell",[6]; 500 nM Inh-172,30.0 and 23.0 and 20.0 and 18.0
same,"percent inhibition of current, individual cell",[6]; 1000 nM Inh-172,44.0 and 37.0 and 41.0 and 39.0
same,"percent inhibition of current, individual cell",[6]; 5000 nM Inh-172,81.0 and 80.0 and 79.0 and 75.0 and 77.0
same,"percent inhibition of current, individual cell",[6]; 10000 nM Inh-172,92.0 and 91.0
